Data taken from US8722849B2, “Polypeptides” (Novo Nordisk A/S, priority 2011, dated 2014).
Read-outs that look alike come from different tables or passages of the source. Part of at least one peptide drawing is inferred or uncertain, most often the ends. For some assays here: At least one read-out could not be matched to a standard name with certainty. Starred links: 1 amine or outer side, 2 acyl side, 3 side chain; linkers in the order of their positions; H or OH if unused. Positions of bridges follow the written chain, without caps; N, C: chain ends. Residues, ends and D or L forms follow the SMILES beside them. Groups on a side chain read outwards from the residue. *: point of attachment. C20 diacid = O=C(O)CCCCCCCCCCCCCCCCCCC(=O)*; γGlu = O=C(O)[C@H](CCC(=O)[*:2])N[*:1]; AEEA = NCCOCCOCC(=O)O

What was measured:
[1] = molecular target: T1, human amylin receptor (amylin 3(a) receptor: human calcitonin receptor + RAMP-3) (Homo sapiens, UniProt O60896+P30988); assay: Assay (II)a functional CRE-luciferase assay, human amylin receptor; assay type: cell-based
T1 construct: expressed in transfected cells; host or cells: BHK570
T1 sequence (P30988 25-474): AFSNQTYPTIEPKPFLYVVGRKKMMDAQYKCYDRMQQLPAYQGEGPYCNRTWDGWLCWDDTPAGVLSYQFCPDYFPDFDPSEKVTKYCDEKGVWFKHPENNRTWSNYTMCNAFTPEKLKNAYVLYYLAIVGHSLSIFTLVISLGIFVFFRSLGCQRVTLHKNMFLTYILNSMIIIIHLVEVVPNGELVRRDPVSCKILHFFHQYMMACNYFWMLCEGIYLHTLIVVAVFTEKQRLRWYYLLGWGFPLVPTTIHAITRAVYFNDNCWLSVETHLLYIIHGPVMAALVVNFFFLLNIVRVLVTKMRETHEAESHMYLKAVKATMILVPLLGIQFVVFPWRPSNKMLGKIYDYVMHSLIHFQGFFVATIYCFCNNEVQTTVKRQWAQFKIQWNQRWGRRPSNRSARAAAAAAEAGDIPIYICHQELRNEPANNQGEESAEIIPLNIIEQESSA
T1 sequence (O60896 24-148 partner): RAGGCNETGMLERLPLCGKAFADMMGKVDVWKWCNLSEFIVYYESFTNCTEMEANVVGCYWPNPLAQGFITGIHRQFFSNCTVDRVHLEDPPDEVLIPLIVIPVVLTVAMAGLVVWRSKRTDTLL
Source text: (§1) 1. Luciferase Assay Outline
(§2) Activation of calcitonin and amylin (coexpression of calcitonin receptor and receptor activity modifying proteins (RAMP)) receptors lead to increased intracellular concentrations of cAMP. Consequently, transcription is activated by promoters containing multiple copies of the cAMP response element (CRE). It is thus possible to measure amylin activity by the use of a CRE luciferase reporter gene introduced into BHK cells also expressing calcitonin or amylin receptors.
(§3) A BHK570 cell line was stably transfected with the human calcitonin receptor and a CRE-responsive luciferase reporter gene. The cell line was further transfected with RAMP-3, using standard methods. This turns the calcitonin receptor into an amylin 3(a) receptor. Methotrexate, Neomycin, and Hygromycin are selection markers for luciferase, the calcitonin receptor, and RAMP-3, respectively.
(§4) To perform activity assays, BHK calcitonin (a) receptor- or amylin 3(a)-receptor/CRE-luc cells were seeded in white 96 well culture plates at a density of about 20.000 cells/well. […] Further, 50 μl/well of standard or sample in assay buffer were added. After 3 hours incubation at 37° C. and 5% CO2, the assay medium with standard or sample were removed and replaced by 100 μl/well PBS. Further, 100 μl/well LucLite™ was added. The plates were sealed and incubated at room temperature for 30 minutes. Finally, luminescence was measured on a TopCounter (Packard) in SPC (single photon counting) mode.

[2] = molecular target: T2, human calcitonin receptor (Homo sapiens, UniProt P30988); assay: Assay (II)a functional CRE-luciferase assay, human calcitonin receptor; assay type: cell-based
T2 construct: expressed in transfected cells; host or cells: BHK570
T2 sequence (P30988 25-474): T1 sequence (P30988 25-474)
Source text: as §1, §2, §3, §4

[3] = Assay (III) ThT fibrillation assay for physical stability; assay type: physicochemical
In short: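 Freshly prepared formulations, pH-adjusted, with 1 μM ThT; four or eight replicates incubated at 37 °C under 960 rpm orbital shaking. Fluorescence (ex 444/em 485 nm) read every 20 min; […]. Peptide concentration measured by RP-HPLC before and after the run.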

[4] = Table 2, BHK amylin 3(a)-receptor/CRE-luc cells
[5] = Table 3, BHK amylin 3(a)-receptor/CRE-luc cells
[6] = Table 7, human calcitonin (CTa) receptor
[7] = Table 11, read-out: CTa receptor human EC50

Structure (SMILES)	EC50 [1, 4]	EC50 [1, 5]	EC50 ([1]; Table 4)	EC50 ([1]; Table 5)	EC50 ([1]; Table 6, human amylin receptor)	EC50 ([1]; Table 7, human amylin receptor)	EC50 ([1]; Table 11)	EC50 [2, 6]	EC50 [2, 7]	ThT pH 4.0 lag time ([3]; ThT fibrillation assay)	ThT pH 4.0 lag time (h) ([3]; ThT fibrillation assay)	ThT pH 4.0 recovery ([3]; ThT fibrillation assay)	ThT pH 4.0 recovery (%) ([3]; ThT fibrillation assay)	EC50 ([1]; Table 8)	EC50 ([1]; Table 9)	ThT pH 4.0 lag time ([3]; Table 8)	ThT pH 4.0 lag time ([3]; Table 9)
CC[C@H](C)[C@H](NC(=O)[C@@H]1CCCN1C(=O)CNC(=O)[C@H](Cc1ccccc1)NC(=O)[C@H](CC(N)=O)NC(=O)[C@H](CCCCNC(=O)COCCOCCNC(=O)COCCOCCNC(=O)CC[C@H](NC(=O)CCCCCCCCCCCCCCCCCCC(=O)O)C(=O)O)NC(=O)[C@H](CO)NC(=O)[C@H](CO)NC(=O)[C@H](Cc1c[nH]cn1)NC(=O)[C@@H](NC(=O)[C@H](CC(C)C)NC(=O)[C@H](Cc1ccccc1)NC(=O)[C@H](CCC(=O)O)NC(=O)[C@H](C)NC(=O)[C@H](CC(C)C)NC(=O)[C@H](CCCNC(=N)N)NC(=O)[C@H](CCC(N)=O)NC(=O)[C@@H](NC(=O)[C@H](C)NC(=O)[C@@H]1CSSC[C@H](NC(=O)[C@@H](N)CCCCN)C(=O)N[C@@H](CC(N)=O)C(=O)N[C@@H]([C@@H](C)O)C(=O)N[C@@H](C)C(=O)N[C@@H]([C@@H](C)O)C(=O)N1)[C@@H](C)O)C(C)C)C(=O)N[C@@H](CC(C)C)C(=O)N1CCC[C@H]1C(=O)N1CCC[C@H]1C(=O)N[C@H](C(=O)N[C@@H](CC(N)=O)C(=O)N[C@H](C(=O)NCC(=O)N[C@@H](CO)C(=O)N[C@@H](Cc1c[nH]cn1)C(=O)N[C@H](C(=O)N[C@@H](Cc1ccc(O)cc1)C(N)=O)[C@@H](C)O)C(C)C)[C@@H](C)O [Example 132, N-epsilon21-[2-(2-{2-[2-(2-{2-[(S)-4-Carboxy-4-(19-carboxyheptadecanoylamino)butyrylamino]ethoxy}ethoxy)acetylamino]ethoxy}ethoxy)acetyl]-[Glu14,Lys21,His35]-pramlintide] (H-KCNTATCATQRLAEFLVHSSK([AEEA-AEEA-γGlu-C20 diacid])NFGPILPPTNVGSHTY-NH2; disulfide 2-7)	0.999 nM	0.999 nM	0.999 nM	0.999 nM	0.999 nM	0.999 nM	0.999 nM	0.601 nM	0.601 nM	>45 h	>45 h	100%	100%				
CC[C@H](C)[C@H](NC(=O)[C@@H]1CCCN1C(=O)CNC(=O)[C@H](Cc1ccccc1)NC(=O)[C@H](CC(N)=O)NC(=O)[C@H](CCCCNC(=O)COCCOCCNC(=O)COCCOCCNC(=O)CC[C@H](NC(=O)CCCCCCCCCCCCCCCCCCC(=O)O)C(=O)O)NC(=O)[C@H](CO)NC(=O)[C@H](CO)NC(=O)[C@H](CCCNC(=N)N)NC(=O)[C@@H](NC(=O)[C@H](CC(C)C)NC(=O)[C@H](Cc1ccccc1)NC(=O)[C@H](CCC(=O)O)NC(=O)[C@H](C)NC(=O)[C@H](CC(C)C)NC(=O)[C@H](CCCNC(=N)N)NC(=O)[C@H](CCC(N)=O)NC(=O)[C@@H](NC(=O)[C@H](C)NC(=O)[C@@H]1CSSC[C@H](NC(=O)[C@@H](N)CCCCN)C(=O)N[C@@H](CC(N)=O)C(=O)N[C@@H]([C@@H](C)O)C(=O)N[C@@H](C)C(=O)N[C@@H]([C@@H](C)O)C(=O)N1)[C@@H](C)O)C(C)C)C(=O)N[C@@H](CC(C)C)C(=O)N[C@@H](CO)C(=O)N[C@@H](CCCNC(=N)N)C(=O)N[C@H](C(=O)N[C@@H](CC(N)=O)C(=O)N[C@H](C(=O)NCC(=O)N[C@@H](CO)C(=O)N[C@@H](CCCNC(=N)N)C(=O)N[C@H](C(=O)N[C@@H](Cc1ccc(O)cc1)C(N)=O)[C@@H](C)O)C(C)C)[C@@H](C)O [Example 150, N-epsilon21-[2-(2-{2-[2-(2-{2-[(S)-4-Carboxy-4-(19-carboxyheptadecanoylamino)butyrylamino]ethoxy}ethoxy)acetylamino]ethoxy}ethoxy)acetyl]-[Glu14,Arg18,Lys21,Ser28,Arg29,Arg35]-pramlintide] (H-KCNTATCATQRLAEFLVRSSK([AEEA-AEEA-γGlu-C20 diacid])NFGPILSRTNVGSRTY-NH2; disulfide 2-7)	0.344 nM	0.344 nM	0.344 nM	0.344 nM	0.344 nM	0.344 nM	0.344 nM	0.732 nM	0.732 nM	>45 h	>45 h	83%	83%	0.344 nM	0.344 nM	>45 h	>45 h
CC[C@H](C)[C@H](NC(=O)[C@@H]1CCCN1C(=O)CNC(=O)[C@H](Cc1ccccc1)NC(=O)[C@H](CC(N)=O)NC(=O)[C@H](CCCCNC(=O)COCCOCCNC(=O)COCCOCCNC(=O)CC[C@H](NC(=O)CCCCCCCCCCCCCCCCCCC(=O)O)C(=O)O)NC(=O)[C@H](CO)NC(=O)[C@H](CO)NC(=O)[C@H](Cc1c[nH]cn1)NC(=O)[C@@H](NC(=O)[C@H](CC(C)C)NC(=O)[C@H](Cc1ccccc1)NC(=O)[C@H](CCC(=O)O)NC(=O)[C@H](C)NC(=O)[C@H](CC(C)C)NC(=O)[C@H](CCCNC(=N)N)NC(=O)[C@H](CCC(N)=O)NC(=O)[C@@H](NC(=O)[C@H](C)NC(=O)[C@@H]1CSSC[C@H](NC(=O)[C@@H](N)CCCCN)C(=O)N[C@@H](CC(N)=O)C(=O)N[C@@H]([C@@H](C)O)C(=O)N[C@@H](C)C(=O)N[C@@H]([C@@H](C)O)C(=O)N1)[C@@H](C)O)C(C)C)C(=O)N[C@@H](CC(C)C)C(=O)N[C@@H](CO)C(=O)N[C@@H](CO)C(=O)N[C@H](C(=O)N[C@@H](CC(N)=O)C(=O)N[C@H](C(=O)NCC(=O)N[C@@H](CO)C(=O)N[C@@H](Cc1c[nH]cn1)C(=O)N[C@H](C(=O)N[C@@H](Cc1ccc(O)cc1)C(N)=O)[C@@H](C)O)C(C)C)[C@@H](C)O [Example 131, N-epsilon21-[2-(2-{2-[2-(2-{2-[(S)-4-Carboxy-4-(19-carboxyheptadecanoylamino)butyrylamino]ethoxy}ethoxy)acetylamino]ethoxy}ethoxy)acetyl]-[Glu14,Lys21,Ser28,Ser29,His35]-pramlintide] (H-KCNTATCATQRLAEFLVHSSK([AEEA-AEEA-γGlu-C20 diacid])NFGPILSSTNVGSHTY-NH2; disulfide 2-7)	0.858 nM				0.858 nM	0.858 nM	0.858 nM	0.336 nM	0.336 nM		0.3 h		18%				
